# Assay results reported in the supplement of paper PMC8728848.
# The list shows a part of the results.
# B1: Surfactant Protein D (Human); Neck + Carbohydrate Recognition Domain (NCRD) (Homo sapiens) (protein)
# chain: MLLFLLSALVLLTQPLGYLEAEMKTYSHRTMPSACTLVMCSSVESGLPGRDRDGREGPRGEKGDPGLPGAAGQAGMPGQAGPVGPKGDNGSVGEPGPKGDTGPSGPPGPPGVPGPAGREGALGKQGNIGPQGKPGPKGEAGPKGEVGAPGMQGSAGARGLAGPKGERGVPGERGVPGNTGAAGSAGAMGPQGSPGARGPPGLKGDKGIPGDKGAKGESGLPDVASLRQQVEALQGQVQHLQAAFSQYKKVELFPNGQSVGEKIFKTAQFVKPFTEAQLLCTQAGGQLASPRSAAENAALQQLVVAKNEAAFLSMTDSKTEGKFTYPTGESLVYSNWAPGEPNDDGGSEDCVEIFTNGKWNDVACGEKRLVVCEF
# How the values were obtained:
# Assay in all cases: glycan array binding signal (z-score within array); higher = stronger binding
# Settings in all cases: glycan notation: IUPAC condensed, linker removed; mutation: R343V
# [1] = target: Fuc(a1-2)[GalNAc(a1-3)]Gal(b1-4)[Fuc(a1-3)]GlcNAc
# Procedure, shortened: (§1)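 Columns mapping to the same glycan were averaged after glycan names were converted to IUPAC-condensed notation. The data come from 3228 arrays in the Consortium for Functional Glycomics database, limited to those with an available protein sequence. Binding is reported as a within-array Z-score averaged across arrays of one protein sequence and across linkers.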
# [2] = target: Fuc(a1-2)[GalNAc(a1-4)]Gal(b1-4)GlcNAc
# Procedure, shortened: as §1
# [3] = target: Fuc(a1-2)[GalNAc(b1-3)]Gal
# Procedure, shortened: as §1
# Fuc(a1-3)GlcNAc = target: Fuc(a1-3)GlcNAc
# Procedure, shortened: as §1
# [4] = target: Fuc(a1-3)[Gal(b1-4)]Glc6S
# Procedure, shortened: as §1
# [5] = target: Fuc(a1-3)[Gal(b1-4)]GlcNAc
# Procedure, shortened: as §1
# [6] = target: Fuc(a1-3)[Gal(b1-4)]GlcNAc(b1-2)Man(a1-3)[Fuc(a1-3)[Gal(b1-4)]GlcNAc(b1-2)Man(a1-6)]Man(b1-4)GlcNAc(b1-4)GlcNAc
# Procedure, shortened: as §1
# [7] = target: Fuc(a1-3)[Gal(b1-4)]GlcNAc(b1-2)Man(a1-6)[Gal(b1-4)GlcNAc(b1-2)Man(a1-3)]Man(b1-4)GlcNAc(b1-4)GlcNAc
# Procedure, shortened: as §1
# [8] = target: Fuc(a1-3)[Gal(b1-4)]GlcNAc(b1-3)Gal(b1-3)[Fuc(a1-4)]GlcNAc
# Procedure, shortened: as §1
# [9] = target: Fuc(a1-3)[Gal(b1-4)]GlcNAc(b1-4)Gal(b1-4)[Fuc(a1-3)]GlcNAc
# Procedure, shortened: as §1
# [10] = target: Fuc(a1-3)[Gal(b1-4)]GlcNAc(b1-4)Gal(b1-4)[Fuc(a1-3)]GlcNAc(b1-4)Gal(b1-4)[Fuc(a1-3)]GlcNAc
# Procedure, shortened: as §1
# [11] = target: Fuc(a1-3)[Gal(b1-4)]GlcNAc6S
# Procedure, shortened: as §1
# [12] = target: Fuc(a1-3)[Gal3S(b1-4)]Glc6S
# Procedure, shortened: as §1
# [13] = target: Fuc(a1-3)[Gal3S(b1-4)]GlcNAc
# Procedure, shortened: as §1
# [14] = target: Fuc(a1-3)[Gal3S(b1-4)]GlcNAc6S
# Procedure, shortened: as §1
# [15] = target: Fuc(a1-3)[GalNAc(b1-4)]GlcNAc
# Procedure, shortened: as §1
# Fuc(a1-4)GlcNAc = target: Fuc(a1-4)GlcNAc
# Procedure, shortened: as §1
# Fuc(b1-3)GlcNAc = target: Fuc(b1-3)GlcNAc
# Procedure, shortened: as §1
# Gal(a1-2)Gal = target: Gal(a1-2)Gal
# Procedure, shortened: as §1
# Gal(a1-3)Gal = target: Gal(a1-3)Gal
# Procedure, shortened: as §1
# Gal(a1-3)Gal(b1-3)GlcNAc = target: Gal(a1-3)Gal(b1-3)GlcNAc
# Procedure, shortened: as §1
# Gal(a1-3)Gal(b1-4)Glc = target: Gal(a1-3)Gal(b1-4)Glc
# Procedure, shortened: as §1
# Gal(a1-3)Gal(b1-4)GlcNAc = target: Gal(a1-3)Gal(b1-4)GlcNAc
# Procedure, shortened: as §1
# [16] = target: Gal(a1-3)Gal(b1-4)[Fuc(a1-3)]GlcNAc
# Procedure, shortened: as §1
# Gal(a1-3)GalNAc = target: Gal(a1-3)GalNAc
# Procedure, shortened: as §1
# [17] = target: Gal(a1-3)[Gal(a1-4)]Gal(b1-4)GlcNAc
# Procedure, shortened: as §1
# Gal(a1-4)Gal(b1-4)Glc = target: Gal(a1-4)Gal(b1-4)Glc
# Procedure, shortened: as §1
# Gal(a1-4)Gal(b1-4)GlcNAc = target: Gal(a1-4)Gal(b1-4)GlcNAc
# Procedure, shortened: as §1
# Gal(a1-4)GlcNAc = target: Gal(a1-4)GlcNAc
# Procedure, shortened: as §1
# Gal(a1-6)Glc = target: Gal(a1-6)Glc
# Procedure, shortened: as §1
# Gal(b1-2)Gal = target: Gal(b1-2)Gal
# Procedure, shortened: as §1
# Gal(b1-3)Gal = target: Gal(b1-3)Gal
# Procedure, shortened: as §1
# Gal(b1-3)Gal(b1-4)GlcNAc = target: Gal(b1-3)Gal(b1-4)GlcNAc
# Procedure, shortened: as §1
# Gal(b1-3)GalNAc = target: Gal(b1-3)GalNAc
# Procedure, shortened: as §1
# [18] = target: Gal(b1-3)GalNAc(b1-3)Gal(a1-4)Gal(b1-4)Glc
# Procedure, shortened: as §1
# [19] = target: Gal(b1-3)GalNAc(b1-4)Gal(b1-4)Glc
# Procedure, shortened: as §1
# [20] = target: Gal(b1-3)GalNAc(b1-4)[Neu5Ac(a2-3)]Gal(b1-4)Glc
# Procedure, shortened: as §1
binder,measurement,setting,value
B1,glycan array binding signal (z-score),[1],0.482
same,glycan array binding signal (z-score),[2],1.22
same,glycan array binding signal (z-score),[3],-0.491
same,glycan array binding signal (z-score),Fuc(a1-3)GlcNAc,3.11
same,glycan array binding signal (z-score),[4],-0.264
same,glycan array binding signal (z-score),[5],-0.47
same,glycan array binding signal (z-score),[6],-0.5
same,glycan array binding signal (z-score),[7],-0.543
same,glycan array binding signal (z-score),[8],0.139
same,glycan array binding signal (z-score),[9],-0.436
same,glycan array binding signal (z-score),[10],-0.544
same,glycan array binding signal (z-score),[11],-0.351
same,glycan array binding signal (z-score),[12],-0.226
same,glycan array binding signal (z-score),[13],-0.365
same,glycan array binding signal (z-score),[14],-0.2
same,glycan array binding signal (z-score),[15],-0.548
same,glycan array binding signal (z-score),Fuc(a1-4)GlcNAc,1.34
same,glycan array binding signal (z-score),Fuc(b1-3)GlcNAc,1.95
same,glycan array binding signal (z-score),Gal(a1-2)Gal,-0.571
same,glycan array binding signal (z-score),Gal(a1-3)Gal,-0.455
same,glycan array binding signal (z-score),Gal(a1-3)Gal(b1-3)GlcNAc,-0.501
same,glycan array binding signal (z-score),Gal(a1-3)Gal(b1-4)Glc,-0.518
same,glycan array binding signal (z-score),Gal(a1-3)Gal(b1-4)GlcNAc,-0.42
same,glycan array binding signal (z-score),[16],-0.503
same,glycan array binding signal (z-score),Gal(a1-3)GalNAc,-0.564
same,glycan array binding signal (z-score),[17],-0.532
same,glycan array binding signal (z-score),Gal(a1-4)Gal(b1-4)Glc,-0.508
same,glycan array binding signal (z-score),Gal(a1-4)Gal(b1-4)GlcNAc,-0.522
same,glycan array binding signal (z-score),Gal(a1-4)GlcNAc,-0.542
same,glycan array binding signal (z-score),Gal(a1-6)Glc,-0.586
same,glycan array binding signal (z-score),Gal(b1-2)Gal,-0.572
same,glycan array binding signal (z-score),Gal(b1-3)Gal,-0.504
same,glycan array binding signal (z-score),Gal(b1-3)Gal(b1-4)GlcNAc,-0.562
same,glycan array binding signal (z-score),Gal(b1-3)GalNAc,-0.521
same,glycan array binding signal (z-score),[18],-0.553
same,glycan array binding signal (z-score),[19],-0.463
same,glycan array binding signal (z-score),[20],-0.438
